Assay [1] addresses T1, Pub1 RRM3 (Saccharomyces cerevisiae) (UniProt P32588).
T1 sequence: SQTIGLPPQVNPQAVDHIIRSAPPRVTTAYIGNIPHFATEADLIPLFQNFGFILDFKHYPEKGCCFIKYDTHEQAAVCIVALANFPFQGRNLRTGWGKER
The experiment in a line: NMR titration; 1H-15N HSQC of 15N-labelled Pub1 RRM3 titrated with eIF4G1 peptides, eIF4G1 constructs and mutants, or Pab1 RRM12; NMR buffer (25 mM potassium phosphate pH 6.5, 25 or 150 mM NaCl, 1 mM DTT, 10% D2O), 25°C; both purified.

In assay [2] the target is T2, eIF4G1_(1-249), N-terminal intrinsically disordered region of eIF4G1 (Saccharomyces cerevisiae) (UniProt P39935).
T2 sequence: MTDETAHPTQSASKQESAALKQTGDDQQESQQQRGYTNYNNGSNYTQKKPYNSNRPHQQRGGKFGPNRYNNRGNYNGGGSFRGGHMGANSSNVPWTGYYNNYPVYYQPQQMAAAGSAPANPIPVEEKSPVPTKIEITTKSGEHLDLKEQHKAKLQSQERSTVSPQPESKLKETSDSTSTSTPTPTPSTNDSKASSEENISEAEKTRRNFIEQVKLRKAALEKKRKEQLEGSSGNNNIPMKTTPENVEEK
The experiment in a line: NMR titration; 1H-15N HSQC of 15N-eIF4G1 1-249 with unlabeled Pub1 RRM3 or Pab1 RRM12; signal intensity ratios; NMR buffer (25 mM potassium phosphate pH 6.5, 25 or 150 mM NaCl, 1 mM DTT, 10% D2O), 25°C; both purified.

Assay [3] deals with T1, Pub1 RRM3 (Saccharomyces cerevisiae). The experiment in a line: NMR structure; eIF4G1 35-49 fused to the N-terminus of Pub1 RRM3 on one chain; distance restraints from a 2D NOESY (60 ms mixing time), Cyana; both purified.

Changes are numbered by the printed parent chain. In names and notes the source's numbering stands. These are yes or no findings as the source states them, for the method shown. Some binding calls cover weakened binding; strength is not graded here. Tags and fused reporters may be left off the sequences shown.

B1: eIF4G1_(1-305) (domain or fragment, UniProt P39935 1-305)
chain: MTDETAHPTQSASKQESAALKQTGDDQQESQQQRGYTNYNNGSNYTQKKPYNSNRPHQQRGGKFGPNRYNNRGNYNGGGSFRGGHMGANSSNVPWTGYYNNYPVYYQPQQMAAAGSAPANPIPVEEKSPVPTKIEITTKSGEHLDLKEQHKAKLQSQERSTVSPQPESKLKETSDSTSTSTPTPTPSTNDSKASSEENISEAEKTRRNFIEQVKLRKAALEKKRKEQLEGSSGNNNIPMKTTPENVEEKGSDKPEVTEKTKPAEEKSAEPEVKQETPAEEGEQGEKGQIKEESTPKVLTFAERLK
Turning to B1, the binding result in assay [1] was “binds weakly”.

B2: eIF4G1_(1-402) (domain or fragment, UniProt P39935 1-402)
chain: MTDETAHPTQSASKQESAALKQTGDDQQESQQQRGYTNYNNGSNYTQKKPYNSNRPHQQRGGKFGPNRYNNRGNYNGGGSFRGGHMGANSSNVPWTGYYNNYPVYYQPQQMAAAGSAPANPIPVEEKSPVPTKIEITTKSGEHLDLKEQHKAKLQSQERSTVSPQPESKLKETSDSTSTSTPTPTPSTNDSKASSEENISEAEKTRRNFIEQVKLRKAALEKKRKEQLEGSSGNNNIPMKTTPENVEEKGSDKPEVTEKTKPAEEKSAEPEVKQETPAEEGEQGEKGQIKEESTPKVLTFAERLKLKKQQKEREEKTEGKENKEVPVQEETKSAIESAPVPPSEQVKEETEVAETEQSNIDESATTPAIPTKSDEAEAEVEAEAGDAGTKIGLEAEIETTTD
Regarding B2, the binding entry in assay [1] is on record as “binds weakly”.

B3: eIF4G1_(1-249), N-terminal intrinsically disordered region of eIF4G1 (domain or fragment, Saccharomyces cerevisiae, UniProt P39935 1-249, looked up)
chain: T2 sequence
notes: 15N-labelled where it was the observed partner; Minor isoaspartate forms (12%-14%) are reported at positions 41 and 76; In the intermolecular PRE experiment the second copy was the Q109C mutant carrying a TEMPO spin label; also called eIF4G1 IDR; not shown: thioredoxin A, N-terminal, cleaved; 6xHis, internal (between thioredoxin A and the TEV site), cleaved
Consider B3, for which the binding result in assay [1] is “binds weakly”.

For STNDSKASSEENISEAEKTRRNFIEQVKLRKAALEKKRKEQLEGSSGN (peptide, UniProt P39935 187-234) [eIF4G1 BOX3 peptide (eIF4G1_(187-234))], in assay [1], the binding entry is recorded as “no binding”.

B4: eIF4G1_(1-82) (domain or fragment, UniProt P39935 1-82)
chain: MTDETAHPTQSASKQESAALKQTGDDQQESQQQRGYTNYNNGSNYTQKKPYNSNRPHQQRGGKFGPNRYNNRGNYNGGGSFR
Take B4: the binding entry in assay [1] was “binds weakly”.

B5: eIF4G1_(1-184) (domain or fragment, UniProt P39935 1-184)
chain: MTDETAHPTQSASKQESAALKQTGDDQQESQQQRGYTNYNNGSNYTQKKPYNSNRPHQQRGGKFGPNRYNNRGNYNGGGSFRGGHMGANSSNVPWTGYYNNYPVYYQPQQMAAAGSAPANPIPVEEKSPVPTKIEITTKSGEHLDLKEQHKAKLQSQERSTVSPQPESKLKETSDSTSTSTPTP
For the molecule B5, the binding result in assay [1] is listed as “binds”.

B6: eIF4G1_(1-184) Y98A/Y99A (domain or fragment, UniProt P39935 1-184)
chain: B5 chain with Y98A, Y99A
On to B6, for which the binding entry in assay [1] is “binds weakly”.

B7: eIF4G1_(1-184) Y105A/Y106A (domain or fragment, UniProt P39935 1-184)
chain: B5 chain with Y105A, Y106A
As to B7, the binding result in assay [1] is “binds weakly”.

B8: eIF4G1_(1-184) W95A (domain or fragment, UniProt P39935 1-184)
chain: B5 chain with W95A
As for B8, the binding result in assay [1] is given as “binds weakly”.

B9: Pub1 RRM3 (domain or fragment, UniProt P32588 315-414)
chain: T1 sequence
B9: in assay [2], the binding result is “binds weakly”.

B10: eIF4G1_(1-348) (domain or fragment, UniProt P39935 1-348)
chain: MTDETAHPTQSASKQESAALKQTGDDQQESQQQRGYTNYNNGSNYTQKKPYNSNRPHQQRGGKFGPNRYNNRGNYNGGGSFRGGHMGANSSNVPWTGYYNNYPVYYQPQQMAAAGSAPANPIPVEEKSPVPTKIEITTKSGEHLDLKEQHKAKLQSQERSTVSPQPESKLKETSDSTSTSTPTPTPSTNDSKASSEENISEAEKTRRNFIEQVKLRKAALEKKRKEQLEGSSGNNNIPMKTTPENVEEKGSDKPEVTEKTKPAEEKSAEPEVKQETPAEEGEQGEKGQIKEESTPKVLTFAERLKLKKQQKEREEKTEGKENKEVPVQEETKSAIESAPVPPSEQVKE
B10: the binding entry in assay [1] is on record as “binds weakly”.

On to GYTNYNNGSNYTQKK (peptide, UniProt P39935 35-49) [eIF4G1_(35-49)], for which, in assay [3], the binding result is on record as “binds weakly”.

Source of the values: publication PMC9537944, “eIF4G1 N-terminal intrinsically disordered domain is a multi-docking station for RNA, Pab1, Pub1, and self-assembly” (Frontiers in Molecular Biosciences, 2022).
